The subject of the data set is ATP. The data set is described as follows: switch fluorescence ratio, 500 uM ATP over buffer (Cy3 cluster intensity, sum of 5 cycles each) (fold (ratio)); higher = stronger signal-on switching upon ATP binding; sequences stand for … in TCGTCGGCAGCGTCAGATGTGTATAAGAGACAGTTTTTTTTTTTTTTTTTTTTTTTTT…TC. The following applies: aptamer strand: ATP DNA aptamer (quencher-CACCTGGGGGAGTATTGCGGAGGAAGG + anchor), 100 nM annealed; ATP concentration: 500 uM; one replicate. In outline:
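Imaging in selection buffer was followed by imaging after 15 min with 500 uM ATP at 22 °C, for Cy3-labelled switching-strand clusters annealed to 100 nM quencher-labelled ATP aptamer on a modified Illumina MiSeq flow-cell. Five of these buffer/ATP cycles ran, separated by NaOH stripping and re-annealing. The fluorescence ratio per cluster is summed target-cycle over summed buffer-cycle Cy3 intensity, averaged per switch-domain sequence; clusters outside 100-1000 RFU were removed.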

Values marked as one replicate rest on one cluster of the flow cell; about a third of the high ones do not repeat.

We go through 120 sequences from the supplement of paper PMC10126150.
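Further: ATP exposure 15 min at 22 °C before imaging.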

Consider GAAGTGTAGA, for which the switch fluorescence ratio came out at 1.01.

With GGACCTCGGA, the switch fluorescence ratio came out at 1.

Take TACGTAGAG: the switch fluorescence ratio stood at 1.08.

Turning to GGGTCCATCC, the switch fluorescence ratio is 1.01.

Regarding CAGGATAAGT, the switch fluorescence ratio came to 1.01.

Turning to AGGAGGGCAA, the switch fluorescence ratio was 1.04.

ACCCCCCTCA: the switch fluorescence ratio came to 1.27.

As to TAGGGCAGGA, the switch fluorescence ratio was 0.999.

Consider GCATGCATGT, for which the switch fluorescence ratio was 0.993.

Turning to CGTAGGTAGC, the switch fluorescence ratio was 0.997.

Consider CGGCGCGCCC, for which the switch fluorescence ratio was determined as 1.06.

In the case of CCTGAAAAGA, the switch fluorescence ratio stood at 1.56.

As to GATCAGGGGC, the switch fluorescence ratio amounted to 1.07.

Turning to CCCGGAAGCA, the switch fluorescence ratio was found to be 1.96.

As to CCGAGGTGT, the switch fluorescence ratio amounted to 1.48.

Regarding TCTGTCTTAG, the switch fluorescence ratio was determined as 0.996.

Turning to TGGTATCTAG, the switch fluorescence ratio was 1.03.

For the sequence AGTTTATTCG, the switch fluorescence ratio came to 0.973.

As to CCAAACCTTT, the switch fluorescence ratio worked out at 1.25.

For GGTTTCGGC, the switch fluorescence ratio was determined as 0.989.

GTTCTTAAC: the switch fluorescence ratio worked out at 1.03.

As to TGGCTAGGTG, the switch fluorescence ratio was 1.63.

In the case of TCGCCGATTG, the switch fluorescence ratio was determined as 1.02.

Consider ATATGGCCCG, for which the switch fluorescence ratio is 0.959.

On to GATGGACGCT, for which the switch fluorescence ratio worked out at 1.03.

As for TCATGGTCCG, the switch fluorescence ratio turned out to be 1.04.

Take GGCGGGCTTC: the switch fluorescence ratio amounted to 1.02.

For CTAATAAAAT, the switch fluorescence ratio turned out to be 1.07.

Turning to GGAAACCGAT, the switch fluorescence ratio was 1.27.

As for CCAAGTGGTC, the switch fluorescence ratio is 1.

In the case of CCCTATAGGC, the switch fluorescence ratio stood at 0.98.

On to TCAACTTGTT, for which the switch fluorescence ratio was determined as 1.16.

For GCAGTTGGGC, the switch fluorescence ratio was determined as 1.07.

As to CCCTTCGAAT, the switch fluorescence ratio worked out at 1.25.

As for AGTCGGCTTC, the switch fluorescence ratio is 1.02.

Regarding AATCGGTGC, the switch fluorescence ratio was found to be 1.05.

Consider TTCATTCAAA, for which the switch fluorescence ratio was found to be 0.975.

In the case of GAGGCGATGT, the switch fluorescence ratio is 1.19.

As to GGGGAACGAG, the switch fluorescence ratio amounted to 1.

Turning to CTAGTTCATC, the switch fluorescence ratio is 0.984.

Take GTTCCTGTTT: the switch fluorescence ratio came to 1.03.

Turning to CGTCTAGGCG, the switch fluorescence ratio worked out at 1.01.

For the sequence TAAGGTATGG, the switch fluorescence ratio is 0.982.

Regarding GATGTCTTTG, the switch fluorescence ratio turned out to be 1.01.

Take GGTTTTCGGT: the switch fluorescence ratio is 0.991.

TCGCAGTTTG: the switch fluorescence ratio came out at 1.01.

AGCCAGTACG: the switch fluorescence ratio is 1.07.

In the case of GCCACAGTTT, the switch fluorescence ratio was 1.01.

On to CAGATCTTAA, for which the switch fluorescence ratio came to 0.973.

As for GTGCCCCATA, the switch fluorescence ratio amounted to 1.07.

Regarding ATGCCAGTAA, the switch fluorescence ratio came out at 0.957.

Regarding TCTGTGTATC, the switch fluorescence ratio was found to be 0.974.

In the case of TTCGGTGTCA, the switch fluorescence ratio was 1.01.

CGGTGCTATT: the switch fluorescence ratio was 0.96.

With GAAGGAGGTA, the switch fluorescence ratio came to 0.949.

Take CTATATAAGC: the switch fluorescence ratio was 1.06.

Turning to TTCCTCACAC, the switch fluorescence ratio was 1.17.

For the sequence TATTTTTGAA, the switch fluorescence ratio stood at 1.04.

GTTGTTTGCT: the switch fluorescence ratio came to 1.

With TCTTCTAGA, the switch fluorescence ratio came to 0.949.

As to TAATGCCCGC, the switch fluorescence ratio came to 0.999.

For the sequence GTGGTTTCG, the switch fluorescence ratio came out at 0.986.

Take GATGGGGTTG: the switch fluorescence ratio was 1.

With GGGAGGGAAT, the switch fluorescence ratio stood at 1.53.

On to TCCGGTTTGA, for which the switch fluorescence ratio was 1.01.

Consider ATTAAGTACA, for which the switch fluorescence ratio was found to be 1.35.

Consider ATAACCGGCA, for which the switch fluorescence ratio stood at 1.07.

AACGTGTCC: the switch fluorescence ratio stood at 1.06.

Regarding GTGGTGAAGA, the switch fluorescence ratio was 0.969.

As to ATCGACGCCG, the switch fluorescence ratio was 1.03.

Take TGTTGGGCGC: the switch fluorescence ratio was 1.03.

Consider AGGCAGAAAC, for which the switch fluorescence ratio came out at 1.07.

TTAGAAAACA: the switch fluorescence ratio amounted to 1.03.

In the case of TTGAGGCCTC, the switch fluorescence ratio turned out to be 1.05.

Turning to TTGAGCCATC, the switch fluorescence ratio worked out at 1.02.

With AGTGTGGAAA, the switch fluorescence ratio turned out to be 1.03.

CGCACGTACG: the switch fluorescence ratio was determined as 1.79.

TGACAGTTTC: the switch fluorescence ratio was found to be 1.01.

Consider GGAGAGTGGG, for which the switch fluorescence ratio turned out to be 0.963.

On to GTAGCGATGT, for which the switch fluorescence ratio came to 1.95.

Consider CTACATTACG, for which the switch fluorescence ratio amounted to 1.54.

GCTATCGCTT: the switch fluorescence ratio was found to be 1.03.

With AGAGGGTTAG, the switch fluorescence ratio is 0.988.

Turning to GAACCAAATT, the switch fluorescence ratio amounted to 1.02.

Turning to ATTTGACGT, the switch fluorescence ratio turned out to be 1.06.

On to TGAGACGTCA, for which the switch fluorescence ratio came to 1.02.

For CTATGTATAA, the switch fluorescence ratio came out at 0.997.

With ATATTGTTAG, the switch fluorescence ratio is 1.01.

On to GGTAAAAGG, for which the switch fluorescence ratio is 0.975.

On to ACCATGTCGG, for which the switch fluorescence ratio was found to be 0.969.

As to TGACGCTTAG, the switch fluorescence ratio amounted to 1.14.

In the case of AATTAAGAAT, the switch fluorescence ratio was found to be 1.

TATTGTTTCC: the switch fluorescence ratio was 1.14.

As to ATCCTACTCG, the switch fluorescence ratio worked out at 1.02.

With AAGTCTAAGT, the switch fluorescence ratio was determined as 1.06.

Take GTGAGTCCGG: the switch fluorescence ratio was determined as 0.99.

As for CGGTTCTATA, the switch fluorescence ratio stood at 1.02.

Turning to GGGAAGTGGG, the switch fluorescence ratio turned out to be 1.02.

Take TATTTCTTCA: the switch fluorescence ratio was determined as 1.01.

With ACAATCGAAT, the switch fluorescence ratio worked out at 1.04.

Take TTTAATATAC: the switch fluorescence ratio was determined as 1.07.

In the case of ATCTAGACGC, the switch fluorescence ratio was found to be 1.07.

In the case of GCGAATTTTA, the switch fluorescence ratio worked out at 1.03.

As to GGCTTTCGGA, the switch fluorescence ratio came out at 0.981.

On to TTAGATTGT, for which the switch fluorescence ratio stood at 1.02.

On to ACCTCGGATC, for which the switch fluorescence ratio is 1.07.

Consider CCGGACCTGT, for which the switch fluorescence ratio worked out at 0.985.

With GGGCGTCGCG, the switch fluorescence ratio came out at 0.991.

For GGCGAAGTGG, the switch fluorescence ratio stood at 0.995.

With TCGTCGTCCC, the switch fluorescence ratio was 1.05.

Consider CAGTCGTTGA, for which the switch fluorescence ratio came out at 1.03.

For the sequence TATGCCTACC, the switch fluorescence ratio came out at 1.14.

On to ACATAGGACA, for which the switch fluorescence ratio amounted to 1.04.

Regarding TAGGACTATA, the switch fluorescence ratio was 1.

For the sequence CCGTCGCCTG, the switch fluorescence ratio turned out to be 0.987.

With CTTCGGCGGC, the switch fluorescence ratio is 1.16.

With AAGAGCAGCG, the switch fluorescence ratio amounted to 1.01.

As to TCTGGCACTA, the switch fluorescence ratio was 1.05.

Turning to CCGTGGTGTT, the switch fluorescence ratio is 1.15.

For the sequence TCCAACCACC, the switch fluorescence ratio amounted to 1.27.
